Experimental data taken from a compilation of properties of binary mixtures (doi:10.1021/acs.jced.9b01018).
Some of these densities may be calculated back from excess volumes.

Assay: xn = mol fraction of the nth substance listed
Conditions: 100 kPa

CC(=O)[O-].CCCC[n+]1ccn(C)c1 + O
mass density [kg/m3]
Conditions	x2 = 0.012	x2 = 0.0152	x2 = 0.0163
273.15 K	1066.9	–	1066.7
274.15 K	–	1066.4	–
283.15 K	1060.6	1060.8	1060.4
293.15 K	1054.4	1054.5	–
298.15 K	1051.2	1051.1	1051.1
303.15 K	1048.1	1047.8	1047.9
313.15 K	1042	1041.6	1041.9
323.15 K	1036	1035.8	1035.9
333.15 K	–	1030.1	–
343.15 K	1024.1	1024.2	1023.9
353.15 K	1018.2	–	1018
363.15 K	1012.3	–	–
